The values below come from publication PMC12820563, “FoxP3 forms a head-to-head dimer in vivo and stabilizes its multimerization on adjacent microsatellites”.

This is one part of the list.

The experiment concerns the target T1, MBP-FoxP1dN (Mus musculus, UniProt P58462 326-579).
T1 sequence: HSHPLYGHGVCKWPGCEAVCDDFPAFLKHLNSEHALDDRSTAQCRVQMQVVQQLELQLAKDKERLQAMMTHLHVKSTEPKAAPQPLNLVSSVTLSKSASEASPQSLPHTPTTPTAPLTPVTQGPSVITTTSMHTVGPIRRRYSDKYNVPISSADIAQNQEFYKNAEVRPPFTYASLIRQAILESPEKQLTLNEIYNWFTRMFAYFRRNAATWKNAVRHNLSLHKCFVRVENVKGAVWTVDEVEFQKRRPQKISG
Description: PD-seq (MBP pull-down with sequencing); 20 mM Tris-HCl pH 7.5, 100 mM NaCl, 1.5 mM MgCl2, 0.4 uM protein, 0.1 uM dsDNA library, 30 min, room temperature, amylose pull-down; high values mean tight binding. The settings on record: protein: recombinant; tags: His6-MBP; chain copies: 2; dsDNA, one strand shown. In a few lines:
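The N-terminus-lacking fragment of mouse FoxP3 or FoxP1 carried a His6-MBP tag and was expressed in E. coli. At 0.4 µM it was incubated with 0.1 µM Klenow-filled degenerate double-stranded DNA library for 30 min at room temperature in Tris pH 7.5 buffer with NaCl and MgCl2, and complexes were caught on amylose resin, washed three times, released with proteinase K, PCR-barcoded and Illumina-sequenced. Binding is reads-per-million enrichment of pull-down over input with replicates pooled.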
With “GATGATTGTTCTCCCAGCTGATGAATTGAAAGGATCGAGTAAACAAATTTTCCTAATCTTTCTGTTCAAGCGCCATCTAC”, the binding signal is 0.776 RPM ratio (pull-down/input). Then “GATGATTGTTCTCCCAGCTGATGAATTGGCATAATCGAGTAAACAAATTTTCCTAATCTTTCTGTTCAAGCGCCATCTAC”, with 1.22 RPM ratio (pull-down/input); and “GATGATTGTTCTCCCAGCTGATGAATTTCCTCCCTCGAGTAAACAAATTTTCCTAATCTTTCTGTTCAAGCGCCATCTAC”, with 0.834 RPM ratio (pull-down/input); and “GATGATTGTTCTCCCAGCTGATGAATTCGCGGTCTCGAGTAAACAAATTTTCCTAATCTTTCTGTTCAAGCGCCATCTAC”, with 0.853 RPM ratio (pull-down/input).

As for “GATGATTGTTCTCCCAGCTGATGAATTACACCACTCGAGTAAACAAATTTTCCTAATCTTTCTGTTCAAGCGCCATCTAC”, the binding signal is 1.14 RPM ratio (pull-down/input). The result for “GATGATTGTTCTCCCAGCTGATGAATTCATACGTTCGAGTAAACAAATTTTCCTAATCTTTCTGTTCAAGCGCCATCTAC” reads 1.04 RPM ratio (pull-down/input). Then “GATGATTGTTCTCCCAGCTGATGAATTAAGAGCGTCGAGTAAACAAATTTTCCTAATCTTTCTGTTCAAGCGCCATCTAC”, with 0.946 RPM ratio (pull-down/input). On to “GATGATTGTTCTCCCAGCTGATGAATTCCAGCAATCGAGTAAACAAATTTTCCTAATCTTTCTGTTCAAGCGCCATCTAC”, for which the binding signal is 0.986 RPM ratio (pull-down/input). The result for “GATGATTGTTCTCCCAGCTGATGAATTGTAGGACTCGAGTAAACAAATTTTCCTAATCTTTCTGTTCAAGCGCCATCTAC” reads 0.895 RPM ratio (pull-down/input); that for “GATGATTGTTCTCCCAGCTGATGAATTTCCCCCATCGAGTAAACAAATTTTCCTAATCTTTCTGTTCAAGCGCCATCTAC”, 0.881 RPM ratio (pull-down/input); that for “GATGATTGTTCTCCCAGCTGATGAATTATTTGGCTCGAGTAAACAAATTTTCCTAATCTTTCTGTTCAAGCGCCATCTAC”, 1.11 RPM ratio (pull-down/input). Then “GATGATTGTTCTCCCAGCTGATGAATTGGGAAATTCGAGTAAACAAATTTTCCTAATCTTTCTGTTCAAGCGCCATCTAC”, with 0.972 RPM ratio (pull-down/input); and “GATGATTGTTCTCCCAGCTGATGAATTTCAGTTGTCGAGTAAACAAATTTTCCTAATCTTTCTGTTCAAGCGCCATCTAC”, with 1.38 RPM ratio (pull-down/input); and “GATGATTGTTCTCCCAGCTGATGAATTGCCATGCTCGAGTAAACAAATTTTCCTAATCTTTCTGTTCAAGCGCCATCTAC”, with 1.02 RPM ratio (pull-down/input).

“GATGATTGTTCTCCCAGCTGATGAATTTTGCGCTTCGAGTAAACAAATTTTCCTAATCTTTCTGTTCAAGCGCCATCTAC”: the binding signal was 0.86 RPM ratio (pull-down/input). Then “GATGATTGTTCTCCCAGCTGATGAATTTATCGGCTCGAGTAAACAAATTTTCCTAATCTTTCTGTTCAAGCGCCATCTAC”, with 0.931 RPM ratio (pull-down/input); and “GATGATTGTTCTCCCAGCTGATGAATTAGAATCCTCGAGTAAACAAATTTTCCTAATCTTTCTGTTCAAGCGCCATCTAC”, with 0.849 RPM ratio (pull-down/input). Then “GATGATTGTTCTCCCAGCTGATGAATTAATGCTTTCGAGTAAACAAATTTTCCTAATCTTTCTGTTCAAGCGCCATCTAC”, with 1.55 RPM ratio (pull-down/input); and “GATGATTGTTCTCCCAGCTGATGAATTGCAGAAGTCGAGTAAACAAATTTTCCTAATCTTTCTGTTCAAGCGCCATCTAC”, with 1.06 RPM ratio (pull-down/input).

Regarding “GATGATTGTTCTCCCAGCTGATGAATTTACCACGTCGAGTAAACAAATTTTCCTAATCTTTCTGTTCAAGCGCCATCTAC”, the binding signal is 1.14 RPM ratio (pull-down/input). The result for “GATGATTGTTCTCCCAGCTGATGAATTACTGACCTCGAGTAAACAAATTTTCCTAATCTTTCTGTTCAAGCGCCATCTAC” reads 0.91 RPM ratio (pull-down/input); that for “GATGATTGTTCTCCCAGCTGATGAATTGCTCGCTTCGAGTAAACAAATTTTCCTAATCTTTCTGTTCAAGCGCCATCTAC”, 0.987 RPM ratio (pull-down/input); that for “GATGATTGTTCTCCCAGCTGATGAATTGGGGTTCTCGAGTAAACAAATTTTCCTAATCTTTCTGTTCAAGCGCCATCTAC”, 0.889 RPM ratio (pull-down/input). Regarding “GATGATTGTTCTCCCAGCTGATGAATTCATAGAGTCGAGTAAACAAATTTTCCTAATCTTTCTGTTCAAGCGCCATCTAC”, the binding signal is 0.833 RPM ratio (pull-down/input). The result for “GATGATTGTTCTCCCAGCTGATGAATTTGGCCTTTCGAGTAAACAAATTTTCCTAATCTTTCTGTTCAAGCGCCATCTAC” reads 0.919 RPM ratio (pull-down/input). Then “GATGATTGTTCTCCCAGCTGATGAATTATCCAAATCGAGTAAACAAATTTTCCTAATCTTTCTGTTCAAGCGCCATCTAC”, with 1.08 RPM ratio (pull-down/input). The result for “GATGATTGTTCTCCCAGCTGATGAATTGCAACATTCGAGTAAACAAATTTTCCTAATCTTTCTGTTCAAGCGCCATCTAC” reads 1.75 RPM ratio (pull-down/input); that for “GATGATTGTTCTCCCAGCTGATGAATTAATGCCCTCGAGTAAACAAATTTTCCTAATCTTTCTGTTCAAGCGCCATCTAC”, 0.983 RPM ratio (pull-down/input). Turning to “GATGATTGTTCTCCCAGCTGATGAATTAACATTGTCGAGTAAACAAATTTTCCTAATCTTTCTGTTCAAGCGCCATCTAC”, the binding signal was 1.08 RPM ratio (pull-down/input).

Regarding “GATGATTGTTCTCCCAGCTGATGAATTCCCGCATTCGAGTAAACAAATTTTCCTAATCTTTCTGTTCAAGCGCCATCTAC”, the binding signal is 1.17 RPM ratio (pull-down/input). Then “GATGATTGTTCTCCCAGCTGATGAATTTTGGGCATCGAGTAAACAAATTTTCCTAATCTTTCTGTTCAAGCGCCATCTAC”, with 1.01 RPM ratio (pull-down/input); and “GATGATTGTTCTCCCAGCTGATGAATTGCTTAGTTCGAGTAAACAAATTTTCCTAATCTTTCTGTTCAAGCGCCATCTAC”, with 1.02 RPM ratio (pull-down/input).
